# Over roughly 1,800 sequences, “median log2 fold change of GCK-ALFA target abundance (FLAG IP / Myc IP barcode read proportion)” has its median near 0.14; the lowest 2% begin near -0.84. The list shows a part of the results.
# T1: TRAF2, Q12933
# T1 chain: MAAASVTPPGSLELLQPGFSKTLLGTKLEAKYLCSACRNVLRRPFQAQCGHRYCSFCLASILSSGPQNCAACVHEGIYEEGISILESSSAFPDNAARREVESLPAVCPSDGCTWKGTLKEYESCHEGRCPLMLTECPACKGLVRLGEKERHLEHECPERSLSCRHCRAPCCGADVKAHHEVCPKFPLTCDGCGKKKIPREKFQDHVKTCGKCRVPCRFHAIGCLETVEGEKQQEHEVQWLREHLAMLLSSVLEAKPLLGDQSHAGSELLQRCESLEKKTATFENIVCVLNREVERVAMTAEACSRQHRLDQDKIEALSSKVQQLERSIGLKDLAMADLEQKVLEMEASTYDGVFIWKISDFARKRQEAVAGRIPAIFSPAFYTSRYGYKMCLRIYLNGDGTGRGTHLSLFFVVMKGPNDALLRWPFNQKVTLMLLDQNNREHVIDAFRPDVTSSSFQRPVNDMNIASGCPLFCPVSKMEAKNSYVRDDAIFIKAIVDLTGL
# B1: traf2_out_6_156_2422 (protein)
# chain: AAEAILAEAKERIRREIAELAAASEERKIAHISRIAGAVYRALQRLREAGASPEELKAAGEELRATAEAEAARAGLPQDVRDLLLASIDAVVEVALAEAA
# B2: traf2_out_15_48_1365 (protein)
# chain: NREEYLAVMREVADRQIAKADEVAARLAELLPRASPEVRPGLEALRDAALAGAGLSTIRAALRALAKRADPELAAELNALADEVEAVRRESSRRVAEVEK
# B3: traf2_out_20_3_2164 (protein)
# chain: SELEKKLEEELERALKLLKKAAELSDEETKKKLKELIERLKESRSLSPSDRLVVVSEVRREVLLLAQKAKAEGKEELAKLLEEAAEELNRAMQLLYEIIE
# B4: traf2_out_6_156_2452 (protein)
# chain: TLEEIKAKTKEEIEKAIKELAKASPEKKISYINKIAGAFYRGLQAAREAGASLEELKAFAEELLKTAEEAAKKAGLDEETKNLLLSSLNAVAEVALEEAK
# B5: traf2_out_6_166_2460 (protein)
# chain: MSEIEKRIREIIKELSKYSVEVILKAFEIVAKEVNEEDARILRQLASAVRQAQKLGLPIETALTATVDGLITLGVSEERLLELLEKVLKKAKELEKEKKA
# B6: traf2_out_11_155_752 (protein)
# chain: EEKRKLLNEMNDKIMEIFDKAREEVDELAKKTAEKYPEHKEKIEKKMKETEKFSPKSYMLSMRDLFKELGLEEEAKKVEEIIEKTQKEASKIVIETEKKL
# B7: traf2_out_1_27_1019 (protein)
# chain: STEELRELIKETSRKIAAVGPEEAKKIVKEAIKYAHENKIGNPEVLAVTLFTMQMDPEMREAIKEAVIEAFKELGVPEERIERVRRRMDSAAERLDKLLA
# B8: traf2_out_6_156_2436 (protein)
# chain: SIEEILKKTKEELEKLIKELAAASEEKKIFYINKIAGTVYRALQELRDSGASIEELEKFAEEVREFVEKALKEAGLDEDTQNLVLSSLNAVFQVALESAR
# B9: traf2_out_17_162_1577 (protein)
# chain: EELERRLEELKKELEELEKELEELKKKLPDFENMSYEELTDELVRASELKRRARELAEELRELREKLGEEELEELVRRAEEIAEELQRIMNEIYKEIEKK
# B10: traf2_out_18_117_1776 (protein)
# chain: SEREKIIKELKEIAERLEKAASKLGKVVLENWDKLSPEEKSEAMDVLADLTEVRQEALELIIKIENGEVPVEEAKKRLEELKKRAEEAIEKAEKMIEKIK
# B11: traf2_out_20_3_2054 (protein)
# chain: EELLKELEEEEKKLRELIEEIEKLVDPETAEELREALERVEKARKEGLEEYLVALSELRRLLLRLAEEARAAGKEEVAALLEEAAEAAQRAMNIVMKIIE
# B12: traf2_out_17_162_1580 (protein)
# chain: SELEEKLKKLEEELKKLKEKLKELEEKLKKLKEMSKEELTDLLVEASEARRKALELAEELKKLKPEIGEEKATKLIEEAEKIAERFQKIANEIYKELEKK
# B13: traf2_out_13_95_1095 (protein)
# chain: SAEVAAKINAIADKMLDEVLKILEELLKKMEKAGKLVEEVKEALDLAEKRSINEAIHLLKELAKKYPEFKEEFEEAIKKIEEIKREAGREVAKILKEEEE
# B14: traf2_out_20_38_2001 (protein)
# chain: SAEEEEEEKLKKIIDVANEAYDEASKEIEELKAAGKSVEEIAEIVRAKVRELLTAAGLEEELEELLADIDRALSSPNALRLFARIRARAVALVKQKELNE
# B15: traf2_out_18_5_1953 (protein)
# chain: SREEELKEALKSAERILSKKPEIEAEAKKLGVEELYKKAVEDFTRALENGEDLAKISTKHAEELAKKIGDPEKAEDLTYEIRRYVSAEYAKEVLEEMLKA
# B16: traf2_out_18_3_1935 (protein)
# chain: KEEKLKEISEKIDEIVDEARAKAREALAELKERHPELAERAEELEALLDAGAGPFGILEEIAELYREAGDEEKAKEIEEFLKEKRKKMSELVDEYEKLLK
# B17: traf2_out_19_16_1984 (protein)
# chain: SMEKAEELIKKMKEYLKEALELAKEAVAKIDELSREELSDKLVEISELKRKAQEALQKALELLKDDPERQKELREEFDEKLDEINRLSTVLVNKLEELLK
# B18: traf2_out_11_155_686 (protein)
# chain: EKKREINNKLVDEMSAIADEAKAQVRAIAEATGAAHPEAAAALAATAEATAGHGLRSFAGSMAATFRALGQDDAAAQVEALLAEAQKKMNEAVKKAEKEL
# B19: traf2_out_20_3_2224 (protein)
# chain: EELKRRVEEELERIERLLEEARPLLPEEDYERLRRLLEEARRALEEDLTDALVKLSELRRLALELAQEARAAGNEELAALLERMAEEANRAAGLVLKMIE
# B20: traf2_out_15_48_1367 (protein)
# chain: DAAAYRAAMNAAADRIIATKDEVKKEVKELAKVASPEVKKKLNEVAKLIEAGAGSQEIIAALKEAAKVASPELKAKLEELAERLRAARREASAIAAAMAK
# B21: traf2_out_12_187_947 (protein)
# chain: SVEDELLEAAKEGLRQAKRALEEAGPDDPRIRELLEKLLEAEKALEKDPSIASDLLVAASAALRYVRLLEAGADPEEVAAAAEEALEILDEVLAEAKARE
# B22: traf2_out_3_89_2293 (protein)
# chain: SAAQAATLAELRAQAAAYARGFAKSARFVAREMVRDGMSLDTLRGVLNAAATALAEVLAERAKEAGLSDADIAALTAEFTATLDAIVDEVLAEAAARRAA
# B23: traf2_out_11_169_876 (protein)
# chain: EEAEKNRKLNDFALELNDKAKKELKEFALKLAKELGLDVEEVKAIFEKNKNKSLSAVAAALIEYFRSKGEEAAAEAILKKHEELKDKINKEFSEKLKELE
# B24: traf2_out_15_48_1349 (protein)
# chain: SVEDLHRMNREIADLAEETRDELAKRLEELLKKAPESVKPDLEALLQAARNGATLRDIRGALEALLPKVSPELKAELEEMIAEIDEVLRRMSEIARRVLS
# B25: traf2_out_19_16_1979 (protein)
# chain: AEERLEELERRLEEIERRVEELEEYFEKNEETLTREELSDLLVEVSELKREALEIRERLLELEGVDPERVRELIRRAEEIIERAQRLANKIVERYEELLK
# B26: traf2_out_6_169_2497 (protein)
# chain: SEEERLREEAERHRERARELLELADTIYEQALKNPDKSLIPTYVEALETMLNALRHHYDRAIEALRKLGKEEEAKELEKEREERVKEMEEKLAELKKLLE
# B27: traf2_out_9_17_2624 (protein)
# chain: AEAERARHEAMLRVVERVLEELIEEGLITEEEAEEILEKVRKAIEEGKSVDEVRALFLGDVASVLLFDKKLPVKETQEIVGRVYRRIRRLLAEEEARRAA
# B28: traf2_out_8_139_2533 (protein)
# chain: EEEERRRDEVEKRVIGRIMNTMTRIANRAAATQKTKEEAEKTYLEILHLGGRIARALLSGEDPQPYLDKLEALLLSLGLEDEAKEARETVEAARAELEAA
# B29: traf2_out_18_5_1954 (protein)
# chain: SREEELREALESAKRILEKEPEIEARAKELGVEELYKQAVKDFTEALENGKDLEKIYLEHKEKFAEKIGDPELAEELVYEIRRYVSAKYAKEVLEEELAA
# Target: T1, TRAF2, Q12933
# Assay: median log2 fold change of GCK-ALFA target abundance (FLAG IP / Myc IP barcode read proportion) (log2 ratio); each designed protein is fused to an ALFA-tag nanobody in HEK293 cells to bring the named protein to FLAG-tagged glucokinase (GCK); Myc marks an untargeted standard; higher = target protein stabilised (more abundant)
# Conditions: target protein: 3xFLAG-MCP-GCK-ALFA reporter; HEK293 landing pad (RPLP)
# Method in brief: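 Binders fused to an ALFA nanobody were recombined as a library into HEK293 landing-pad cells, which were induced with 2 μg mL^−1 doxycycline and then transfected to express a FLAG-tagged target and a Myc-tagged standard. After 48 h, circular RNA barcodes recovered by anti-FLAG and anti-Myc immunoprecipitation of lysates were reverse transcribed, amplified and sequenced. Each binder's target abundance is the median log2 ratio of FLAG to Myc barcode read proportions, from barcodes present at ≥10^−7 in both replicates, binders carrying ≥3 barcodes per replicate, a 10^−6 pseudocount and pooled replicates.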
row,Binder,median log2 fold change
1,B1,0.0475
2,B2,-0.0186
3,B3,-0.157
4,B4,0.182
5,B5,0.469
6,B6,-0.198
7,B7,0.0707
8,B8,0.119
9,B9,0.0914
10,B10,0.289
11,B11,0.588
12,B12,0.0169
13,B13,-0.132
14,B14,-1.24
15,B15,-0.0294
16,B16,-0.346
17,B17,0.272
18,B18,0.159
19,B19,0.141
20,B20,-0.184
21,B21,0.218
22,B22,-0.614
23,B23,-0.227
24,B24,0.186
25,B25,0.263
26,B26,0.331
27,B27,-0.102
28,B28,0.0288
29,B29,0.118

# Reference: the supplement of paper PMC12632987
